Measurements from publication PMC3637504.
Results are given in words; binding and its absence hold for the method and conditions named. In cells and extracts the contact can be indirect. Some results given as binding are weak or reduced against the parent protein; the word gives no strength. Sequences can lack the tags named with a protein.

Sequences of proteins named here, by UniProt entry; tags and fusion partners are left off.
UniProt Q00722: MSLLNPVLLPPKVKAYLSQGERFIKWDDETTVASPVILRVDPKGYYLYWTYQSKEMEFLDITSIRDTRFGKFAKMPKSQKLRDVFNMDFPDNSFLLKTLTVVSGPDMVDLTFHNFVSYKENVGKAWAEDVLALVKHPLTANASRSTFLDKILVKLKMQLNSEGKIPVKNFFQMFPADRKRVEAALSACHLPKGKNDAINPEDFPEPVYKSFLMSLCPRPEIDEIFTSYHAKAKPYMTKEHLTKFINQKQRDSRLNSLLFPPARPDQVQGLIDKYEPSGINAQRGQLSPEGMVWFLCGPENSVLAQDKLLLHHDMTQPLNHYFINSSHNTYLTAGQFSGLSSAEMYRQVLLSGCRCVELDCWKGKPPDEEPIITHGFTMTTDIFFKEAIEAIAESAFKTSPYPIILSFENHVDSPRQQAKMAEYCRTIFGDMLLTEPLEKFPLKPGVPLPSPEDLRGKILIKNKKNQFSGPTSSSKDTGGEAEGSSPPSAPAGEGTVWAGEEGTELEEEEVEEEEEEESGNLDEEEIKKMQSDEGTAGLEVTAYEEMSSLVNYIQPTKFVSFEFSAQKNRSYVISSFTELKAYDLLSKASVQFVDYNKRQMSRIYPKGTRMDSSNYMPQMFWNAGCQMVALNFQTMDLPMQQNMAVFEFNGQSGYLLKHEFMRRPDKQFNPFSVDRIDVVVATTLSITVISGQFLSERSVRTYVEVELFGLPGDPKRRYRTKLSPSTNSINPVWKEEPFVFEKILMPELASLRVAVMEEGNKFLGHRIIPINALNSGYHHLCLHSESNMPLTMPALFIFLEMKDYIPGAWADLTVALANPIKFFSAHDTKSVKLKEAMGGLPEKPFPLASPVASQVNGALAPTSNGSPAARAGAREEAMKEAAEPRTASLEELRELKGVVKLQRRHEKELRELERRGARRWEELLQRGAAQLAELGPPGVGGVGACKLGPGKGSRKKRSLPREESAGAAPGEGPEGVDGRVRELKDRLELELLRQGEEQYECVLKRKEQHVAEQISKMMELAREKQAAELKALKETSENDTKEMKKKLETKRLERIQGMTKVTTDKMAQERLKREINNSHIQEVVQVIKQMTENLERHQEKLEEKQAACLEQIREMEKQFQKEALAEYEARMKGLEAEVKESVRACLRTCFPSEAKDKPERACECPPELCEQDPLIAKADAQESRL

B1: Phospholipase Cβ1 (PLCβ1) (enzyme, UniProt Q9NQ66 1-1216)
chain: MAGAQPGVHALQLKPVCVSDSLKKGTKFVKWDDDSTIVTPIILRTDPQGFFFYWTDQNKETELLDLSLVKDARCGRHAKAPKDPKLRELLDVGNIGRLEQRMITVVYGPDLVNISHLNLVAFQEEVAKEWTNEVFSLATNLLAQNMSRDAFLEKAYTKLKLQVTPEGRIPLKNIYRLFSADRKRVETALEACSLPSSRNDSIPQEDFTPEVYRVFLNNLCPRPEIDNIFSEFGAKSKPYLTVDQMMDFINLKQRDPRLNEILYPPLKQEQVQVLIEKYEPNNSLARKGQISVDGFMRYLSGEENGVVSPEKLDLNEDMSQPLSHYFINSSHNTYLTAGQLAGNSSVEMYRQVLLSGCRCVELDCWKGRTAEEEPVITHGFTMTTEISFKEVIEAIAECAFKTSPFPILLSFENHVDSPKQQAKMAEYCRLIFGDALLMEPLEKYPLESGVPLPSPMDLMYKILVKNKKKSHKSSEGSGKKKLSEQASNTYSDSSSMFEPSSPGAGEADTESDDDDDDDDCKKSSMDEGTAGSEAMATEEMSNLVNYIQPVKFESFEISKKRNKSFEMSSFVETKGLEQLTKSPVEFVEYNKMQLSRIYPKGTRVDSSNYMPQLFWNAGCQMVALNFQTMDLAMQINMGMYEYNGKSGYRLKPEFMRRPDKHFDPFTEGIVDGIVANTLSVKIISGQFLSDKKVGTYVEVDMFGLPVDTRRKAFKTKTSQGNAVNPVWEEEPIVFKKVVLPTLACLRIAVYEEGGKFIGHRILPVQAIRPGYHYICLRNERNQPLTLPAVFVYIEVKDYVPDTYADVIEALSNPIRYVNLMEQRAKQLAALTLEDEEEVKKEADPGETPSEAPSEARTTPAENGVNHTTTLTPKPPSQALHSQPAPGSVKAPAKTEDLIQSVLTEVEAQTIEELKQQKSFVKLQKKHYKEMKDLVKRHHKKTTDLIKEHTTKYNEIQNDYLRRRAALEKSAKKDSKKKSEPSSPDHGSSTIEQDLAALDAEMTQKLIDLKDKQQQQLLNLRQEQYYSEKYQKREHIKLLIQKLTDVAEECQNNQLKKLKEICEKEKKELKKKMDKKRQEKITEAKSKDKSQMEEEKTEMIRSYIQEVVQYIKRLEEAQSKRQEKLVEKHKEIRQQILDEKPKLQVELEQEYQDKFKRLPLEILEFVQEAMKGKISEDSNHGSAPLSLSSDPGKVNHKTPSSEELGGDIPGKEFDTPL

What was measured:
Test in all cases: co-IP; HEK293 cells transiently transfected with PLCβ1 or PLCβ2 and tagged PKD1/2/3; HA-PKD1, FLAG-PKD2 and Myc-PKD3 precipitated from lysates with their respective affinity gels; Western blot for PLCβ1/2; the paper calls these data preliminary
FLAG-PKD2 = biological target: T1, FLAG-PKD2 (UniProt Q9BZL6)
T1 sequence: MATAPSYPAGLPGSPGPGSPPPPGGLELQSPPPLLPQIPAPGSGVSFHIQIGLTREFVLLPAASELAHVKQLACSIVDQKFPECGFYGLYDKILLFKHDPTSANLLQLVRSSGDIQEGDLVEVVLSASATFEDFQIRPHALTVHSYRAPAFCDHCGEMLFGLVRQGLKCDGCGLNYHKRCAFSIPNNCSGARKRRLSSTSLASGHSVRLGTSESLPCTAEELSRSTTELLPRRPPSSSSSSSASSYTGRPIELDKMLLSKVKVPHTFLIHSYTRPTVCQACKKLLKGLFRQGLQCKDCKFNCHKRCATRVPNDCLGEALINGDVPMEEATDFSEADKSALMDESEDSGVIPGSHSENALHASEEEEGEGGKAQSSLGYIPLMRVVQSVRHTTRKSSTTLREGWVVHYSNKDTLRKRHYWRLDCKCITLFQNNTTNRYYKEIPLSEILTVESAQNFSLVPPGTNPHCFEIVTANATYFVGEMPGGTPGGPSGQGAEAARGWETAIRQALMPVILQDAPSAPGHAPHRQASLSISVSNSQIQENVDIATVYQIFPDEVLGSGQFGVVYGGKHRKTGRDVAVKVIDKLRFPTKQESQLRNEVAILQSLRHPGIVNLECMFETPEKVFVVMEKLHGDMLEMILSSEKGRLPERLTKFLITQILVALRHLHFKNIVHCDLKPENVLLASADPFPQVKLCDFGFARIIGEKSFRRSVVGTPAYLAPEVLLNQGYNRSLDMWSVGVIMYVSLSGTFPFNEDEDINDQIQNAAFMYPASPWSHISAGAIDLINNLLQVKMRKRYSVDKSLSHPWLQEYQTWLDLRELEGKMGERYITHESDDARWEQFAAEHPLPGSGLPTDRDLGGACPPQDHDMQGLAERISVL

Myc-PKD3 = biological target: T2, Myc-PKD3 (UniProt O94806)
T2 sequence: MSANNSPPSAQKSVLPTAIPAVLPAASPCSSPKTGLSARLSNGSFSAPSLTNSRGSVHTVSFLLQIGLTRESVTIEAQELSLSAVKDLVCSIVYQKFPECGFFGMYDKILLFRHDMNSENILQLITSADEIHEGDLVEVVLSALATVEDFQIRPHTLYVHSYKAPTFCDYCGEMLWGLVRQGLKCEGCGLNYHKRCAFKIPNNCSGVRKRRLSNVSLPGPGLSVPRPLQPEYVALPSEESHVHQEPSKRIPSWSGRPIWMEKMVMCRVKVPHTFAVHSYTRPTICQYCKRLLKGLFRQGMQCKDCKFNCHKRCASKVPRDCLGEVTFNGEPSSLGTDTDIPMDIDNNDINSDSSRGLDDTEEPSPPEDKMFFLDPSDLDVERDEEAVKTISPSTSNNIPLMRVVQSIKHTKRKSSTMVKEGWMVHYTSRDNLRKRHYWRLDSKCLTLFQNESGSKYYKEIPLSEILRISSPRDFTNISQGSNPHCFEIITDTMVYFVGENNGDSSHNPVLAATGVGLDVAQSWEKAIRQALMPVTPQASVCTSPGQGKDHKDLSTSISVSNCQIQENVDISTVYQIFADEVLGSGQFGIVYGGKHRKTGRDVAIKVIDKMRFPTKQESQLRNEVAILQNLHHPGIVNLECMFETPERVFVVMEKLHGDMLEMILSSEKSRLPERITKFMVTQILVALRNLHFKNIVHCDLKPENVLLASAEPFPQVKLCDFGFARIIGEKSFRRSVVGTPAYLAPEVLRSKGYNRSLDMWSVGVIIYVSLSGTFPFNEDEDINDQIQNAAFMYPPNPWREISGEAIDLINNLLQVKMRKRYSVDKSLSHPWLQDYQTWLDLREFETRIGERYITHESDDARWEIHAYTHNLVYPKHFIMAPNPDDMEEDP

HA-PKD1 = biological target: T3, HA-PKD1 (UniProt Q15139)
T3 sequence: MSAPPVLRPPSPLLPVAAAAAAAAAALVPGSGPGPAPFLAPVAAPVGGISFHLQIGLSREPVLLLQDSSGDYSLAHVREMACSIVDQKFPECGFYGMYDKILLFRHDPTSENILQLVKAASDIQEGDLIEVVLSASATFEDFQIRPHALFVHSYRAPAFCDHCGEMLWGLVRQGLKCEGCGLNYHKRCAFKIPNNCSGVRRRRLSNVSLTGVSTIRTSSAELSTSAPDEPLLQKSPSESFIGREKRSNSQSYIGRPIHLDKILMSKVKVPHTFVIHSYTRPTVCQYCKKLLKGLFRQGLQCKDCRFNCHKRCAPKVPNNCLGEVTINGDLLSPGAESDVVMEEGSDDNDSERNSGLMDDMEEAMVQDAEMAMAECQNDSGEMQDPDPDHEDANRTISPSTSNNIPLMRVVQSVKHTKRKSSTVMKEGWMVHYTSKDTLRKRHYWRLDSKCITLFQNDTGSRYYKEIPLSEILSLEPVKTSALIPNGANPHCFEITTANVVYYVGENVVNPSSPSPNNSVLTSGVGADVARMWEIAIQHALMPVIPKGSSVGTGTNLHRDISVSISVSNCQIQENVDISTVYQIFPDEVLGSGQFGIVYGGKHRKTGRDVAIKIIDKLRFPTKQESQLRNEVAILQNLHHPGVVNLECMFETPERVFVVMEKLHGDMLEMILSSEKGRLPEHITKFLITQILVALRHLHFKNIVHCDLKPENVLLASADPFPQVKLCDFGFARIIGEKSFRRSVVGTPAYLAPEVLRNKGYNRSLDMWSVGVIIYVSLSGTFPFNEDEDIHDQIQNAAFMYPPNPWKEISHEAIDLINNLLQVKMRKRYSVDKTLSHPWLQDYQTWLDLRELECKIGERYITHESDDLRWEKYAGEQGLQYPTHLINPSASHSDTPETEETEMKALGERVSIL

Molecule | binding (FLAG-PKD2) | binding (Myc-PKD3) | binding (HA-PKD1)
Phospholipase Cβ2 (PLCβ2) (from UniProt Q00722 1-1185) (enzyme) | binds | binds | binds
B1 | no binding | no binding | no binding
